Like-named read-outs stand apart in the source and are kept apart here.
Tests used:
PI3Kα H1047R [1] = biological target: T1, PI3Kα H1047R (Homo sapiens (Human), UniProt P42336, H1047R); test: biochemical; settings: PI3KαH1047RIC50, ADP-Glo; ATP 25 μM; PIP2 50 μg/mL; 1 hour at room temperature
PI3Kα H1047R [2] = biological target: T1, PI3Kα H1047R; settings: read-out: PI3KαH1047RIC50; ADP-Glo; ATP 25 μM; PIP2 50 μg/mL; 1 hour at room temperature

IC50 (PI3Kα H1047R [1])	IC50 (PI3Kα H1047R [2])	SMILES
0.25 to 10 µM		O=C(Nc1cc(Br)c2c3c1C(c1cc(F)ccc1Cl)NC(=O)N3CC2)c1cc(F)cc(C(F)(F)F)c1 (single isomer, unassigned) [YL079-P1]
< 0.25 µM		O=C(Nc1cc(Br)c2c3c1C(c1cc(F)ccc1Cl)NC(=O)N3CC2)c1cc(F)cc(C(F)(F)F)c1 (single isomer, unassigned) [YL079-P2]
> 10 µM		N#Cc1cc(NC(=O)c2cc(F)cc(C(F)(F)F)c2)c2c3c1CCN3C(=O)NC2c1cc(Cl)ccc1Cl (single isomer, unassigned) [YL101-P1]
< 0.25 µM		N#Cc1cc(NC(=O)c2cc(F)cc(C(F)(F)F)c2)c2c3c1CCN3C(=O)NC2c1cc(Cl)ccc1Cl (single isomer, unassigned) [YL101-P2]
> 10 µM		Cn1nc2c(C#N)cc(NC(=O)c3cc(F)cc(C(F)(F)F)c3)c3c2c1C(=O)NC3c1cc(F)ccc1Cl (single isomer, unassigned) [YL102-P1]
< 0.25 µM		Cn1nc2c(C#N)cc(NC(=O)c3cc(F)cc(C(F)(F)F)c3)c3c2c1C(=O)NC3c1cc(F)ccc1Cl (single isomer, unassigned) [YL102-P2]
> 10 µM		N#Cc1c(-c2cc(NC(=O)c3cc(F)cc(C(F)(F)F)c3)c3c4c2CCN4C(=O)NC3c2cc(F)ccc2Cl)ccc2ncnn12 (single isomer, unassigned) [YL108-P1]
< 0.25 µM		N#Cc1c(-c2cc(NC(=O)c3cc(F)cc(C(F)(F)F)c3)c3c4c2CCN4C(=O)NC3c2cc(F)ccc2Cl)ccc2ncnn12 (single isomer, unassigned) [YL108-P2]
> 10 µM		N#Cc1c(-c2cc(NC(=O)c3cc(F)cc(C(F)(F)F)c3)c3c4c2CCN4C(=O)NC3c2cc(Cl)ccc2Cl)ccc2ncnn12 (single isomer, unassigned) [YL109-P1]
< 0.25 µM		N#Cc1c(-c2cc(NC(=O)c3cc(F)cc(C(F)(F)F)c3)c3c4c2CCN4C(=O)NC3c2cc(Cl)ccc2Cl)ccc2ncnn12 (single isomer, unassigned) [YL109-P2]
> 10 µM		Cn1nc2c(C#N)cc(NC(=O)c3cc(F)cc(C(F)(F)F)c3)c3c2c1C(=O)NC3c1cc(Cl)ccc1Cl (single isomer, unassigned) [YL111-P1]
< 0.25 µM		Cn1nc2c(C#N)cc(NC(=O)c3cc(F)cc(C(F)(F)F)c3)c3c2c1C(=O)NC3c1cc(Cl)ccc1Cl (single isomer, unassigned) [YL111-P2]
0.25 to 10 µM		O=C(Nc1cc(-c2cn[nH]c2C(F)F)c2c3c1C(c1cc(F)ccc1Cl)NC(=O)N3CC2)c1cc(F)cc(C(F)(F)F)c1 (centres unmarked) [YL075]
< 0.25 µM		O=C(Nc1cc(O)c2c3c1C(c1cc(F)ccc1Cl)NC(=O)N3CC2)c1cc(F)cc(C(F)(F)F)c1 (centres unmarked) [YL076]
0.25 to 10 µM		COc1cc(NC(=O)c2cc(F)cc(C(F)(F)F)c2)c2c3c1CCN3C(=O)NC2c1cc(F)ccc1Cl (centres unmarked) [YL078]
0.25 to 10 µM		O=C(Nc1cc(-n2ccc(C(F)(F)F)n2)c2c3c1C(c1cc(F)ccc1Cl)NC(=O)N3CC2)c1cc(F)cc(C(F)(F)F)c1 (centres unmarked) [YL080]
0.25 to 10 µM		O=C(Nc1cc(-n2cc(C(F)(F)F)cn2)c2c3c1C(c1cc(F)ccc1Cl)NC(=O)N3CC2)c1cc(F)cc(C(F)(F)F)c1 (centres unmarked) [YL081]
0.25 to 10 µM		O=C(Nc1cc(-n2cc(F)cn2)c2c3c1C(c1cc(F)ccc1Cl)NC(=O)N3CC2)c1cc(F)cc(C(F)(F)F)c1 (centres unmarked) [YL082]
0.25 to 10 µM		O=C(Nc1cc(-n2cc(C(F)(F)F)nn2)c2c3c1C(c1cc(F)ccc1Cl)NC(=O)N3CC2)c1cc(F)cc(C(F)(F)F)c1 (centres unmarked) [YL083]
0.25 to 10 µM		CP(C)(=O)c1cc(NC(=O)c2cc(F)cc(C(F)(F)F)c2)c2c3c1CCN3C(=O)NC2c1cc(F)ccc1Cl (centres unmarked) [YL084]
0.25 to 10 µM		O=C(Nc1cc(-c2nnn[nH]2)c2c3c1C(c1cc(F)ccc1Cl)NC(=O)N3CC2)c1cc(F)cc(C(F)(F)F)c1 (centres unmarked) [YL085]
0.25 to 10 µM		O=C1NC(c2cc(F)ccc2Cl)c2c(Nc3nccc4c(C(F)(F)F)cc(F)cc34)cc(NC(=O)C(F)(F)F)c3c2N1CC3 (centres unmarked) [YL087]
	< 0.25 µM	N#Cc1cc2ncnn2cc1-c1cc(NC(=O)c2cc(F)cc(C(F)(F)F)c2)c2c3c1CCN3C(=O)NC2c1cc(F)ccc1Cl (centres unmarked) [YL153]

— US20240158408A1, “Nitrogen-Containing Heterocyclic Compound, Pharmaceutical Compositions thereof and Use thereof” (280 Bio, Inc., priority 2022, published 2024)
